Data published in patent publication US20250075006A1 (SHANDONG SIMCERE BIOPHARMACEUTICAL, published 2025).
Like-named read-outs stand apart in the source and are kept apart here.

T1: Cyno GUCY2C ECD (his-tagged cynomolgus monkey GUCY2C protein extracellular domain fusion protein) (cynomolgus monkey, UniProt P25092 in part (human entry))
T1 construct: also called monkey GUCY2C-his; monkey GUCY2C-His
T1 chain: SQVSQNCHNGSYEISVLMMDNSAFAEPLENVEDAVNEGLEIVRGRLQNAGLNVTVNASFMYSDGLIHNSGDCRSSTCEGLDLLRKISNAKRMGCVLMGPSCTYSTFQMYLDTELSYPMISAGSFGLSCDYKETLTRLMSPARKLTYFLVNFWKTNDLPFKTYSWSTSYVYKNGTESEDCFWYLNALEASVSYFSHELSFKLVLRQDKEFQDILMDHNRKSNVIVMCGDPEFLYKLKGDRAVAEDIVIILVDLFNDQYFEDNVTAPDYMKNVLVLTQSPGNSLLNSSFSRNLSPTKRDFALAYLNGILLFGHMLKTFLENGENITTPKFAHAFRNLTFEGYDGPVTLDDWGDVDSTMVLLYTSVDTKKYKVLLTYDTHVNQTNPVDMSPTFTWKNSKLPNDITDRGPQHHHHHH


Columns and labels:
[1] = target: T2, human GUCY2C protein, full length, on cells (human, UniProt P25092 24-1073); test: FACS on 293T-hGUCY2C cells, MFI
T2 construct: whole, on cells; also called endogenous tumor cells HT55
Protocol: Then a complete medium was added to stop the digestion, and the cells were blown into a single cell suspension. After counting, the cells were centrifuged, and the cell pellet was resuspended to 2×10⁶ cells/mL in an FACS buffer (PBS+2% fetal bovine serum), and added to a 96-well FACS reaction plate at 100 μL/well. The plate was centrifuged, and the supernatant was discarded. An antibody sample to be tested (diluted in a 5-fold gradient from a starting concentration of 100 nM) was added at 50 μL/well and uniformly mixed with the cells, and the mixture was incubated at 4° C. for 1 h. […] The results were tested and analyzed by FACS (FACS Canto™, purchased from BD) after the plate was centrifuged and washed 3 times with a PBS buffer and resuspended with 100 μL of PBS. Data analysis was performed by software (FlowJo) to obtain the mean fluorescence intensity (MFI) of the cells. Then, analysis was performed by software (GraphPad Prism8), data were fitted, and EC50 values were calculated. As shown in A-C in FIG. 14, PF1608-hIgG1 binds strongly to GUCY2C at the protein level, but weakly at the cellular level. The humanized antibodies of the present application are all capable of binding effectively to recombinant cells expressing human GUCY2C protein and substantially maintain the equivalent binding ability of the recombinant antibodies.

[2] = target: T3, Human GUCY2C ECD (his-tagged human GUCY2C protein extracellular domain fusion protein) (human, UniProt P25092 in part); test: SPR Biacore, antibody on Protein A, antigen injected
T3 construct: also called human GUCY2C-his; human GUCY2C-His
Protocol: (§1) The strength of antibody-antigen binding was assayed with a BIAcore 8K instrument using a Protein A capture method. First, Protein A was immobilized onto a CM4 chip (purchased from GE, BR-1005-34) using an amino coupling method. According to the instruction of the Amine Coupling Kit (purchased from GE, BR100633), NHS and EDC were mixed with HBS-EP+pH 7.4 as a mobile phase to activate the chip for about 600 s; the Protein A was diluted to 50 μg/mL with 10 mM sodium acetate (pH 4.5) and injected for 600 s, and finally, the remaining activated sites were blocked with ethanolamine. Then, the affinity of the antibody for the antigen was assayed using a multi-cycle kinetic method; in each cycle, first, the antibody to be tested was captured using the Protein A chip, and then a single concentration of antigen protein was injected. The association and dissociation processes of the antibody with the antigen protein were recorded, and finally, the chip was regenerated using Glycine pH 1.5, wherein the mobile phase was HBS-EP+(10 mM HEPES, 150 mM NaCl, 3 mM EDTA, 0.05% surfactant P20), the flow rate was 30 μL/min, the regeneration time was 30 s, and the assay temperature was 25° C. Finally, according to a 1:1 binding model, the data were analyzed, and the antibody-antigen binding kinetics parameters, including the association rate constant Ka, the dissociation rate constant Kd, the equilibrium dissociation constant KD, and the maximum binding signal Rmax, were fitted.
(§2) After the finally obtained various humanized antibodies were expressed and purified, the affinities of the humanized antibodies for the human and monkey GUCY2C proteins were separately assayed according to the method in Example 4.6.

[3] = target: T3, Human GUCY2C ECD (his-tagged human …); test: ELISA, plate coated with human GUCY2C-his, OD450
Protocol: To assay the binding activity of the humanized antibodies to human GUCY2C-his protein, a human GUCY2C-his protein was diluted with PBS to a final concentration of 2 μg/mL and then added to a 96-well ELISA plate at 50 μL/well. The plate was sealed with a plastic film and incubated at 4° C. overnight. The next day, the plate was washed 2 times with PBST, and a blocking buffer [PBS+2% (w/w) BSA] was added for blocking at room temperature for 2 h. The blocking buffer was discarded, and the plate was washed 2 times with PBST. An antibody to be tested or a control antibody diluted in a 1:3 gradient from a starting concentration of 100 nM was added at 50 μL/well. After incubation at 37° C. for 1 h, the plate was washed 3 times with PBST. A horseradish peroxidase (HRP)—labeled secondary antibody (purchased from Merck, Cat. No. AP113P) was added for incubation at 37° C. for 1 h, and the plate was washed 5 times with PBST. A TMB substrate was added at 50 µL/well for incubation at room temperature for 5-10 min, and then a stop solution (1.0 M HCl) was added at 50 μL/well. OD450 nm values were read using an ELISA plate reader (Multimode Plate Reader, EnSight, purchased from Perkin Elmer).

[4] = target: T1, Cyno GUCY2C ECD (his-tagged cynomolgus …); test: ELISA, plate coated with monkey GUCY2C-his, OD450
[5] = target: T3, Human GUCY2C ECD (his-tagged human …); test: BLI Gator, antibody on anti-human Fc probe, antigen in solution
Protocol: (§3) Next, we measured the affinity of the recombinant antibody by another method, and the specific procedures were as follows: the binding strength of the antibody to the antigen was assayed by acquiring and analyzing the signal change of the reflection interference spectrum on the surface of the optical probe by using thin film interference technology. First, the probe was equilibrated for 300 s with HBS-T+pH 7.4 (0.02% tween) as the mobile phase. 2 μg/mL of the antibody to be tested was captured by an anti-human FC probe (purchased from ProbeLife, PL168-160003) for 240 s, and then antigen proteins with the concentration of 200 nM and diluted two-fold were injected. Kon for 300 s and Koff for 600 s. The association and dissociation processes of the antibody with the antigen protein were recorded, and finally, the chip was regenerated using Glycine pH 2.0 (purchased from GE), wherein the mobile phase was HBS-T+pH 7.4 (0.02% tween), the regeneration time was 5 s, and the assay temperature was 30° C. Finally, according to a 1:1 binding model, the data were analyzed, and the antibody-antigen binding kinetics parameters, including the association rate constant Ka, the dissociation rate constant Kd, the equilibrium dissociation constant KD, and the maximum binding signal Rmax, were fitted. The association rate (Ka), dissociation rate (Kd), and binding affinity (KD) of the recombinant antibodies with the human GUCY2C and monkey GUCY2C proteins are shown in Table 6.
as §2

[6] = target: T1, Cyno GUCY2C ECD (his-tagged cynomolgus …); test: as above
Protocol: as §3, §2

[7] = target: T3, Human GUCY2C ECD (his-tagged human …); test: SPR Biacore, antibody on Protein A, antigen injected; remark: listed apart in the source
Protocol: as §1
The association rate (Ka), dissociation rate (Kd), and binding affinity (KD) of the recombinant antibodies Lab306-huFc, Lab322-huFc, and Lab323-huFc with the human GUCY2C protein are shown in Table 5. The positive control antibody has good binding activity at the protein level, but has very weak binding at the cellular level. Lab322-huFc and Lab323-huFc, although weak in affinity, bind well to the cellular level, presumably due to differences in the conformation of the proteins and proteins at the viable cellular level.

[8] = target: T3, Human GUCY2C ECD (his-tagged human …); test: BLI Gator, antibody on anti-human Fc probe, antigen in solution; remark: listed apart in the source
Protocol: as §3

[9] = target: T1, Cyno GUCY2C ECD (his-tagged cynomolgus …); test: as above
Protocol: as §3

| EC50 (read off the curve) [1] | Kd [2] | koff [2] | EC50 (read off the curve) [3] | EC50 (read off the curve) [4] | Kd [5] | koff [5] | kon [5] | Kd [6] | koff [6] | kon [6] | kon [2] | Binder | also measured |
| --- | --- | --- | --- | --- | --- | --- | --- | --- | --- | --- | --- | --- | --- |
| ~3 nM | 273 nM | 0.000274 s⁻¹ | ~0.2 nM | ~0.5 nM | 26.6 nM | 0.00146 s⁻¹ | 54900 M⁻¹ s⁻¹ | 41.5 nM | 0.000975 s⁻¹ | 23500 M⁻¹ s⁻¹ | – | hu-Lab323H3-huFc (Fc fusion) EVQLVESGGGLVKPGGSLRLSCASSGRTSTIHRMGWFRQAPGKEREFVSSISRVSSTTYYADSVKGRFTISRDNAKNSLYLQMNSLRAEDTAVYYCAASEYEVSPGKSKYWGQGTMVTVSS[human IgG1 Fc with C220S (EU numbers) not listed] | – |
| ~3 nM | 165 nM | 0.000167 s⁻¹ | ~0.2 nM | ~0.5 nM | 26.7 nM | 0.00151 s⁻¹ | 56400 M⁻¹ s⁻¹ | 17.5 nM | 0.000691 s⁻¹ | 39500 M⁻¹ s⁻¹ | – | hu-Lab323H2-huFc (Fc fusion) EVQLVESGGGLVKPGGSLRLSCAASGRTSTIHRMGWFRQAPGKEREFVSSISRVSSTTYYADSVKGRFTISRDNAKNSLYLQMNSLRAEDTAVYYCAASEYEVSPGKSKYWGQGTMVTVSS[human IgG1 Fc with C220S (EU numbers) not listed] | – |
| ~3 nM | 98.4 nM | 0.000134 s⁻¹ | ~0.2 nM | ~0.3 nM | 20.1 nM | 0.00116 s⁻¹ | 57800 M⁻¹ s⁻¹ | 15.4 nM | 0.00047 s⁻¹ | 30500 M⁻¹ s⁻¹ | 1360 M⁻¹ s⁻¹ | hu-Lab323H6-huFc (Fc fusion) EVQLVESGGGLVKPGGSLRLSCASSGRTSTIHRMGWFRQAPGKEREFVSSISRVSSTTYYADSVKGRFTISRDNAKNSVYLQMNSLRAEDTAVYYCAASEYEVSPGKSKYWGQGTMVTVSS[human IgG1 Fc with C220S (EU numbers) not listed] | – |
| – | – | – | – | – | – | – | – | – | – | – | – | Lab323-huFc (Fc fusion, also called recombinant antibody Lab323-huFc) QLQLVESGGGLVQPGGSLRLSCVSSGRTSTIHRMGWFRQAPGKERDFVASISRVSSTTYYADSVKGRFTISRDNAGNTVYLQMNSLKPEDTAVYYCAASEYEVSPGKSKYWGQGTQVTVSS[human IgG1 Fc with C220S (EU numbers) not listed] | Kd [7]: 102 nM; koff [7]: 0.00029 s⁻¹; kon [7]: 2830 M⁻¹ s⁻¹; Kd [8]: 12.2 nM; koff [8]: 0.00087 s⁻¹; kon [8]: 71400 M⁻¹ s⁻¹; Kd [9]: 17.8 nM; koff [9]: 0.0006 s⁻¹; kon [9]: 33800 M⁻¹ s⁻¹ |
| ~3 nM | 310 nM | 1.65 s⁻¹ | ~0.3 nM | ~0.8 nM | 27.8 nM | 0.00123 s⁻¹ | 44300 M⁻¹ s⁻¹ | 19.1 nM | 0.000569 s⁻¹ | 29800 M⁻¹ s⁻¹ | – | hu-Lab323H5-huFc (Fc fusion) EVQLVESGGGLVKPGGSLRLSCASSGRTSTIHRMGWFRQAPGKEREFVSSISRVSSTTYYADSVKGRFTISRDNAGNSLYLQMNSLRAEDTAVYYCAASEYEVSPGKSKYWGQGTMVTVSS[human IgG1 Fc with C220S (EU numbers) not listed] | – |
| ~3 nM | 558 nM | 0.000618 s⁻¹ | ~0.2 nM | ~0.5 nM | 29.9 nM | 0.00203 s⁻¹ | 67800 M⁻¹ s⁻¹ | 48.3 nM | 0.00143 s⁻¹ | 29600 M⁻¹ s⁻¹ | 1110 M⁻¹ s⁻¹ | hu-Lab323H4-huFc (Fc fusion) QLQLVESGGGLVKPGGSLRLSCASSGRTSTIHRMGWFRQAPGKEREFVSSISRVSSTTYYADSVKGRFTISRDNAKNSLYLQMNSLRAEDTAVYYCAASEYEVSPGKSKYWGQGTMVTVSS[human IgG1 Fc with C220S (EU numbers) not listed] | – |
